The list shows a part of the results.

B1: chr8:97851540:97851652:+|3pUTR|ENSG00000104341|msi1_unk|total|mutant (ssRNA)
RNA: GGGAGUUCUACAGUCCGACGAUCCACUUUUGCCAUGAGCCUCUCUGAGCUUGUUUGUUGCUGAAAUGCUACUUUUUAAAAUUCCGAUGUCCGAUUGAAAACUGCCGUUUUCAACAUAUGCUUUGCUGGAACACUGUGACCGAUCAACAGAGGAUUGAGCAUCA
B2: ENSG00000155158:stop:overlap|stop_codon|ENSG00000155158|stop_codon|NA|stop_codon (ssRNA)
RNA: GGGAGUUCUACAGUCCGACGAUCAAACCAUCUCAAUUUGGCUUAAAAAAAAAUCUGGUAGAAGAGAGGGAAAGACAUCUUCAUAGUGGGACUAUAUUCAUUCCUCCAAAGUUACAGCUGCUCUAAAUCUGUGAGUGCUGAAAUCAACAGAGGAUUGAGCAUCA
B3: chr1:113764432:113764533:-|3pUTR|ENSG00000081019|msi1|FALSE|bound_elsewhere (ssRNA)
RNA: GGGAGUUCUACAGUCCGACGAUCAAAAUAUUCUGAAAUAGGUUAAAUCUUAUAUAAAUAUUACUUUGUGCAAUAUUGUUGUGUAGUUAAAUGCAUAUUAGCAAAGUAUAGAGGUCACUGUGUAAACCGAUAGAAAAGUAACCACAACAGAGGAUUGAGCAUCA
B4: ENSG00000124766:be:win_701|CDS|ENSG00000124766|bound_else_gene|NA|bound_elsewhere_windowed (ssRNA)
RNA: GGGAGUUCUACAGUCCGACGAUCCCGCCUCCUUCGCCGCCGAACAGGCGGGGGCCGCCGCCCUGCUGCCCCUGGGCGCCGCCGCCGACCACCACUCGCUGUACAAGGCGCGGACUCCCAGCGCCUCGGCCUCCGCCUCCUCGGCAACAGAGGAUUGAGCAUCA
B5: chr1:161222291:161222522:-|three_prime_utr|ENSG00000158874|control|control|control (ssRNA)
RNA: GGGAGUUCUACAGUCCGACGAUCACACAGCCUGCCACCCAGUGAAGUGUCCAGACCAUUGUCUUCCAACCCCAGCUGGCCUCUAGAACACCCACUGGCCAGUCCUAGAGCUCCUGUCCCUACCCACUCUUUGCUACAAUAAAUCAACAGAGGAUUGAGCAUCA
B6: ENSG00000198589:be:win_3101|CDS|ENSG00000198589|bound_else_gene|NA|bound_elsewhere_windowed (ssRNA)
RNA: GGGAGUUCUACAGUCCGACGAUCUGGAAGAAACACUGACAAAUGAGACAAGGAAUGCAGAUGAUUUAGAAGUAUCUUCUGACAUAAUAGAAGCUGUGGCUAUUUCCUCUAAUUCUUUUAUAACAACUGGCAAAGAUUCAAUGACAACAGAGGAUUGAGCAUCA

The assay deals with MSI1 full-length (mouse, UniProt Q61474 1-362). Nature of the assay: nsRBNS (natural sequence RNA bind-n-seq); RBNS binding buffer (assumed for nsRBNS): 25 mM Tris pH 7.5, 150 mM KCl, 3 mM MgCl2, 0.01% Triton X-100, 500 ug/ml BSA, 20 U/ml SUPERase-In, 4 C; UNK is unkempt and MSI1 is Musashi-1; names of the RNAs are library labels; protein concentration not given here; high values mean tight binding.
Chain of UniProt Q61474 (Q61474 whole entry): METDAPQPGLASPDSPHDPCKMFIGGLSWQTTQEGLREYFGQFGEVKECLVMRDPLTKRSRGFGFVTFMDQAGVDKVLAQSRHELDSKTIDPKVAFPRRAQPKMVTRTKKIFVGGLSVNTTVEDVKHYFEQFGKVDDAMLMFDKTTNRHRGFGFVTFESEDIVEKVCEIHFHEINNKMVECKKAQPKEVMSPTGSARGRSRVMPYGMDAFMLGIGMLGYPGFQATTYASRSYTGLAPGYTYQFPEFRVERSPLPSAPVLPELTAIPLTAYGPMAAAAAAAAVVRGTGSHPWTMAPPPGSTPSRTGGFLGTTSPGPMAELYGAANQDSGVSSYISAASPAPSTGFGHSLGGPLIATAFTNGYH
Take B1: the binding signal stood at 0.302 enrichment R.

With B2, the binding signal was 0.487 enrichment R.

Molecule B3 registered a binding signal of 51.3 enrichment R.

Regarding B4, the binding signal came to 0.387 enrichment R.

For B5, the binding signal worked out at 1.04 enrichment R.

For B6, the binding signal worked out at 0.533 enrichment R.

Source of the values: publication PMC12136788.
